Paper PMC4336329 (PLoS ONE, 2015)
Among all 310,000 compounds or so, about 2,200 (0.71%) showed an effect of 50% or more. Effects have a minus sign here. This is one part of the list.

The molecules below were run against human ether-à-go-go-related gene (hERG) potassium channel (human, UniProt Q12809) (assay: primary screen, population patch clamp on CHO cells stably expressing hERG).
Sequence of human ether-à-go-go-related gene (hERG) potassium channel (Q12809 whole entry, looked up): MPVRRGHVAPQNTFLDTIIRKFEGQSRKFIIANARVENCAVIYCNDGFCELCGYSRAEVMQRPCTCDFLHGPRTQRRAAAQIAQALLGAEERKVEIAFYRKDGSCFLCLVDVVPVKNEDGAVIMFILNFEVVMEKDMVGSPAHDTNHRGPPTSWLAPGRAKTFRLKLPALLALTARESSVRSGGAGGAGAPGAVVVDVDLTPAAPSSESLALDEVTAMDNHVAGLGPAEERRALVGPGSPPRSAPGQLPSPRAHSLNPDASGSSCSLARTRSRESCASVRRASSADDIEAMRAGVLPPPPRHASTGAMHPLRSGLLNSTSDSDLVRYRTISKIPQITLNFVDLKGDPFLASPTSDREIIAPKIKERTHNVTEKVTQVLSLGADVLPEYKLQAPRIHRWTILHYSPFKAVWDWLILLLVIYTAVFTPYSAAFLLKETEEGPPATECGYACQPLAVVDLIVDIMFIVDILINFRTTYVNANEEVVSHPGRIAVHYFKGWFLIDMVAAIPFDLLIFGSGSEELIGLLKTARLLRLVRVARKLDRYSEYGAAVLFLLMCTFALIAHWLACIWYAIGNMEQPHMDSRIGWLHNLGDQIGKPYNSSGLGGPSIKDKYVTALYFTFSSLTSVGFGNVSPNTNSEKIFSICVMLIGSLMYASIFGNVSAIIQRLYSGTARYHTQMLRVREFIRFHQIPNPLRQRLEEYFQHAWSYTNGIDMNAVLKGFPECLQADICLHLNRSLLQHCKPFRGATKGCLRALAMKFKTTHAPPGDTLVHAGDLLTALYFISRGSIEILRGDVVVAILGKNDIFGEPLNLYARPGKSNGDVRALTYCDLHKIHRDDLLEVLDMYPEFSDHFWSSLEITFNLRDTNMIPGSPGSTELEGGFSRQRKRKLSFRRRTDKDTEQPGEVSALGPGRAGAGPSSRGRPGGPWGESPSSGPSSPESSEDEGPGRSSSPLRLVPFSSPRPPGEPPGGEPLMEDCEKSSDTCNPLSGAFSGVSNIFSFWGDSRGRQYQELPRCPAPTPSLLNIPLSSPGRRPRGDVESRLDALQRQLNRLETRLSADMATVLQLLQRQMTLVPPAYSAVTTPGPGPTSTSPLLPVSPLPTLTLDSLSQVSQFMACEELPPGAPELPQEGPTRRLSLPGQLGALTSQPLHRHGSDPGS

| Compound | hERG current change (%, negative = inhibition) at 1uM [%] |
| --- | --- |
| CC(C)(C)C(=O)C[n+]1cccc(C(N)=O)c1.[Br-] | 14.2 |
| Cc1cccc(NC(=O)/C(=C/c2cccc([N+](=O)[O-])c2)NC(=O)c2cccs2)c1 | 4.88 |
| Cc1ccc(N(Cc2cc3ccc(C)cc3[nH]c2=O)S(C)(=O)=O)c(C)c1 | 2.89 |
| COc1ccc(-c2nc(CN(CC3CCC(=O)N3)C(C)C)c(C)o2)c(C)c1C (centres unmarked) | 10.4 |
| N/C(=N\OC(=O)CCC1CCCC1)c1ccccc1 | 7.93 |
| C=C(C)c1ccc(C(C)(C)NC(=O)N2CCN(C)CC2)cc1 | -9.43 |
| O=C(Nc1ccccc1)N(CCc1nc2ccccc2[nH]1)C1CCCC1 | 16.7 |
| CN(C)CCn1c(COc2ccccc2)nc2ccccc21.Cl.O | -5.79 |
| CCOC(=O)C(CC)/C(C)=N/NC(=O)c1ccc([N+](=O)[O-])cc1 (centres unmarked) | 3.8 |
| COc1ccc(C(=O)N2CCNC(=O)C2CC(=O)Nc2cc(Cl)ccc2OC)cc1 (centres unmarked) | 9.33 |
| CCN(CC)c1ccc(NC(=O)CN2CCN(c3ccccc3F)CC2)cc1 | 7.06 |
| CCOC(=O)CCc1c(C)nc(SCCCn2c(=O)[nH]c3ccccc32)c(C#N)c1C | 11.4 |
| CCOC(=O)c1c(C)nc2c(c1-c1cc(OC)c(OC)c(OC)c1)C(=O)c1ccccc1-2 | 2.39 |
| CCC1CCC/C1=N\NC(=O)c1ccccc1C (centres unmarked) | 11.4 |
| COC(=O)c1ccc(NC(=O)CSCc2ccccc2)cc1 | -3.42 |
| COc1ccc(N2C(=O)CN(Cc3ccc(OC)c(OC)c3)C2=S)cc1 | 9.48 |
| C#CCn1c(O)c(N=NC(=O)C(O)c2ccccc2)c2ccccc21 (centres unmarked) | -1.22 |
| Cc1cc(SCC(=O)OCC(=O)N(C)C2CCS(=O)(=O)C2)c(C)cc1Br (centres unmarked) | -1.02 |
| Cc1cc(F)ccc1S(=O)(=O)N1CCCOC1CNC(=O)C(=O)NC1CCCCC1 (centres unmarked) | 4.3 |
| N#Cc1c(/N=C/c2cc(Br)cs2)sc2c1CCC2 | 10.4 |
| COc1ccc(S(=O)(=O)NCCCn2ccnc2)cc1Cl | 8.36 |
| CCN(CC)C(=O)COc1ccc(/C(C)=N/NC(=O)c2ccccc2-n2cccc2)cc1 | 12.1 |
| COc1cccc(/C=N/NC(=O)c2cnccn2)c1OC | 10.3 |

| Compound | hERG current change (%, negative = inhibition) at 1uM [%] |
| --- | --- |
| Cn1ccc(=Nc2ccc(NC(=O)c3ccc(N=c4ccn(C)c5ccc([N+](=O)[O-])cc45)cc3)cc2)cc1 | 13.3 |
| CCCCCC(=O)N1CCCC(c2nc(-c3ccc(OC)cc3)no2)C1 (centres unmarked) | 10.8 |
| C=CCOn1c(=O)c(-c2ccccc2)[n+]([O-])c2ccccc21 | 9.99 |
| CCc1c(C)nc(SCc2cccnc2)[nH]c1=O | 4.12 |
| Cc1nc(-c2ccc(C(=O)Nc3cccc(F)c3)cc2)cs1 | 16.2 |
| Cc1cc(C)nc(SCc2cn3ccccc3n2)n1 | 11.5 |
| CCn1c(-c2cc(-c3cc(OC)ccc3OC)nc3ccccc23)n[nH]c1=S | 1.44 |
| N#Cc1c(Cl)nc(N/N=C/c2ccccc2)c(Cl)c1Cl | 9.85 |
| CC(=O)Oc1ccc(C(=O)Cc2ccc3ccccc3n2)c(O)c1C | 17.5 |
| CCCC(=O)NC(NC(=S)Nc1ccc(N=Nc2ccccc2)cc1)C(Cl)(Cl)Cl (centres unmarked) | 15.4 |
| Nc1nc2n(n1)C(c1ccc(Cl)cc1)CC(c1ccc(F)cc1)N2 (centres unmarked) | 0.762 |
| CN(C)c1ccc(NC(=O)CN2CCC(C(=O)c3ccc(F)cc3)CC2)cc1 | -4.93 |
| N#Cc1cnn(-c2ccccc2)c1N | 14.1 |
| COc1ccc(C2C=C(c3ccc(Br)s3)Nc3ncnn32)cc1OC (centres unmarked) | -2.99 |
| O=C1Nc2ccccc2Sc2ccccc21 | 9.65 |
| CC(C)(C)NC(=O)CSc1nnc(-c2ccncc2)n1Cc1ccccc1 | 6.76 |
| CC(NC(=O)C(=O)N/N=C/c1ccc(Cl)cc1)c1ccccc1 (centres unmarked) | -18.6 |
| Cc1cc(Cl)ccc1NC(=O)CCC(=O)N/N=C/c1cc([N+](=O)[O-])ccc1O | 9.07 |
| O=C(CC1(C(F)(F)F)OCCO1)Nc1ccc2c(c1)OCO2 | 8.25 |
| COc1ccc(NS(=O)(=O)c2cccc(C(=O)N3CCCC3)c2)cc1 | 8.8 |
| COc1ccc(C(=O)Nc2cc3c(cc2OC)CCCC3)cc1Br | 11.1 |
| CCN(CC)CCCn1c2c(c(SCC(=O)Nc3cccc4ccccc34)nc1=O)CCC2 | -7.84 |
| C/C(=N\Nc1nccnc1Cl)c1c(F)c(F)c(F)c(F)c1F | 0.297 |

| Compound | hERG current change (%, negative = inhibition) at 1uM [%] |
| --- | --- |
| CC(C)CC(NC(=O)C1CCCCC1)C(=O)N1CCN(c2ccccn2)CC1 (centres unmarked) | 5.87 |
| Cc1ccc(-n2c(N)c(C(=O)N3CCOCC3)sc2=S)c(C)c1 | 7.12 |
| COc1ccc(-c2cc(=O)[nH]c(NCc3ccccc3)n2)cc1 | 4.82 |
| Cc1ccc(NS(=O)(=O)c2cccc(C(=O)OCC(=O)NCc3ccco3)c2)cc1 | -3.61 |
| c1ccc2c(NC3=NCCCCS3)cccc2c1 | 0.599 |
| CC(C)(C)C(=O)[C@@H]1[C@@H]2C(=O)N(C3CCCCC3)C(=O)[C@@H]2[C@H]2c3ccccc3C=CN12 | -5.74 |
| Cc1ccc2c(cnn2C(=O)CCC(=O)NC2CCCCC2)c1 | 10.3 |
| COc1ccc(N2CCN(C(=S)Nc3cc(C)cc(C)c3)CC2)cc1 | 6.78 |
| CCNC(=O)NC(=O)C(C)Sc1ncc(C(F)(F)F)cc1Cl (centres unmarked) | 12.4 |
| CCOc1cc(C=O)ccc1OCCSc1ccc(C)cc1 | -3.31 |
| COc1ccc(OC)c(NS(=O)(=O)c2cccs2)c1 | -2.39 |
| Cc1cc(NC(=O)CSc2nnc(COc3ccccc3)n2Cc2ccco2)no1 | -0.27 |
| O=C(CN1C(=O)c2ccccc2C1=O)NCC1CCCO1 (centres unmarked) | 1.38 |
| COC(=O)c1sc(C(F)(F)F)c(-c2ccccc2)c1S(=O)(=O)N1CCCC1 | 7.99 |
| CC(C)c1ccc(NC(=S)Nc2ccc3cn[nH]c3c2)cc1 | 7.64 |
| Cc1cc(NC(=O)c2ccc([N+](=O)[O-])cc2Cl)ccc1NC(=O)c1ccco1 | 8.64 |
| CC(=O)c1nn(-c2ccc(C(F)(F)F)cc2)c(=O)[nH]c1=O | 21.2 |
| CCC(C)NS(=O)(=O)c1ccc(S(=O)(=O)N2CC=C(c3ccc(F)cc3)CC2)cc1 (centres unmarked) | 11 |
| COc1ccc(C(=O)Nc2cc(OC)c(Cl)cc2Cl)cc1 | 12.1 |
| CC(C)OCCCN1C(=O)c2ccccc2C1C(=O)NC1CCCCC1 (centres unmarked) | 4.86 |
| O=S(=O)(NCc1ccc(Cl)cc1Cl)c1ccc(N2CCOCC2)nc1 | -8.65 |
| Cc1ccc(C(=O)C2=C(O)C(=O)N(Cc3cccnc3)C2c2ccc(N(C)C)cc2)o1 (centres unmarked) | 7.88 |
| CCCOc1ccc(C2=CSC3=NCCN23)cc1.Cl | -0.939 |

| Compound | hERG current change (%, negative = inhibition) at 1uM [%] |
| --- | --- |
| CCN(CC(=O)Nc1c(F)cccc1F)C(=O)c1ccc2c(c1)S(=O)(=O)N=C1CCCCCN12 | 15.2 |
| CN1CCN(C(=O)/C(=C/c2ccc(F)cc2)c2ccsc2)CC1.Cl | -52.8 |
| CCOC(=O)CSc1nc(C)c(CC)c(C)c1C(N)=O | 11.8 |
| O=C(NNc1ncnc2c1cnn2-c1ccc(F)cc1)c1cccs1 | 5.51 |
| COc1ccc(-c2nc(CS(=O)CC(=O)NCc3ccc(C)cc3)c(C)o2)cc1OC (centres unmarked) | -7.07 |
| CC(C)CC(=O)N1CCN(Cc2ccccc2Cl)CC1 | 17.5 |
| CC(C)C(NS(=O)(=O)c1ccc2c3c(cccc13)C(=O)N2)C(=O)O (centres unmarked) | 10.2 |
| COCCC1CCCCN1C(=O)c1ccc2nc(Cc3ccccc3F)oc2c1 (centres unmarked) | 18.4 |
| COC(=O)c1c(C)c[nH]c1C | 10.9 |
| CC(=O)Nc1ccc(OCCC[n+]2cccc(C(=O)[O-])c2)cc1 | 12.6 |
| CCOC(=O)c1sc(NC(=O)c2cc(-c3cccc(O)c3)on2)c(C(=O)OCC)c1C | 14.9 |
| COc1ccc(C(=O)Nc2ccc(-c3ccc(NC(=O)c4ccc(OC)cc4)c(OC)c3)cc2OC)cc1 | 15.7 |
| O=C(Nc1nc(-c2ccccc2)cs1)c1cccs1 | -0.447 |
| CC(C)NCCCCOc1cccc(Br)c1.O=C(O)C(=O)O | -2.31 |
| CCOc1ccc(NS(=O)(=O)c2cc(C(=O)NCCCN3CCOCC3)ccc2C)cc1 | 11.1 |
| COc1ccc(C(=O)CSc2nnc(-c3cc(C)cc(C)c3)o2)cc1 | 12.6 |
| Cc1ccc([N+](=O)[O-])cc1-c1ccc(/C=N/NC(=O)c2cc3c(ccc4ccccc43)o2)o1 | 19.7 |
| Cc1ccc2c(c1)N(N=O)CCC2 | 0.848 |
| O=C(C1CCCN(S(=O)(=O)c2cccc3nsnc23)C1)N1CCN(c2ccccn2)CC1 (centres unmarked) | 9.49 |
| CCCOc1ccc(-c2c(C(=O)N/N=C/c3ccccc3OCC)nnn2-c2nonc2N)cc1 | 20.8 |
